# Measurements reported in article PMC4336329 (PLoS ONE, 2015).
# Screen size: about 310,000 compounds; about 14,000 (4.5%) showed an effect of 50% or more. The effect is printed as a negative number. The list shows a part of the results.
# Biological target: human ether-à-go-go-related gene (hERG) potassium channel (human, UniProt Q12809)
# Test: primary screen, population patch clamp on CHO cells stably expressing hERG
# 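Further: peak tail current of the secondary pulse compared with the same well before compound.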
# human ether-à-go-go-related gene (hERG) potassium channel, sequence (Q12809 whole entry, looked up): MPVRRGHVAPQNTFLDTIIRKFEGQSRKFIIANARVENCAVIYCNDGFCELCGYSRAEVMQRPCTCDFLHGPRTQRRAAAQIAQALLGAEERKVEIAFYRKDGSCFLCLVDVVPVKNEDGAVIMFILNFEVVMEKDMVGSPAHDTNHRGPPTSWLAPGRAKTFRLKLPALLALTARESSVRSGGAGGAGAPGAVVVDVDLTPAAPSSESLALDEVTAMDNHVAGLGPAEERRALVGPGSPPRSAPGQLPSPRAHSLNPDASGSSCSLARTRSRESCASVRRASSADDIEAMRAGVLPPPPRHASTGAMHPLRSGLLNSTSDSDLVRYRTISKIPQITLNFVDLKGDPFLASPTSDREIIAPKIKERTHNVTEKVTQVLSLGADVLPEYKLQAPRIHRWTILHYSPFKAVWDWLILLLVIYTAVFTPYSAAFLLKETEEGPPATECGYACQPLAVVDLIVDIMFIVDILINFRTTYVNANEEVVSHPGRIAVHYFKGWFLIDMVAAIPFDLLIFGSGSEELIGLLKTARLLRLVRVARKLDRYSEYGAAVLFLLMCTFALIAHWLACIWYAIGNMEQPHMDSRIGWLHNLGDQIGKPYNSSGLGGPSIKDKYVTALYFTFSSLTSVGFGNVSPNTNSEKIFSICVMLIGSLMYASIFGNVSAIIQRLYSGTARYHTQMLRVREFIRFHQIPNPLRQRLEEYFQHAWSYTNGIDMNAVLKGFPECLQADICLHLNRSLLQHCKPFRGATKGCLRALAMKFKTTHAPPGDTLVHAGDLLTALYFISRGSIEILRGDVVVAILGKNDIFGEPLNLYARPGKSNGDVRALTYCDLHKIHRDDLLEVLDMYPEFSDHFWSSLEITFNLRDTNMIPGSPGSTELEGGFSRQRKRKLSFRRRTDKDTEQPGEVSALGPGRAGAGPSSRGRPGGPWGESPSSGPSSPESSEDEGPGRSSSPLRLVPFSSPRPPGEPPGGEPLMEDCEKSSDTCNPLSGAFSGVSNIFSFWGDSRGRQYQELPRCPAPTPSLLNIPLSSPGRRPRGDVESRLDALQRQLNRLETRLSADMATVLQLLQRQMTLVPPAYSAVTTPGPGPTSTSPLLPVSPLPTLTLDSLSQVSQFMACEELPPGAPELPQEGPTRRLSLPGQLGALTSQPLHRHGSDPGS
row,SMILES,"hERG current change (%, negative = inhibition) at 10uM [%]"
1,COc1ccc(N2CCN(C(=S)NCc3ccc(C)cc3)CC2)cc1,-18.5
2,COc1ccc(C)cc1NC(=O)CN(C)C1CCCCC1,-15
3,NC(=O)C1CCN(C(=S)NC2CC3C=CC2C3)CC1 (stereo not drawn),16.2
4,C/C(=N\N(C)C)c1ccc(OCCOc2ccc([N+](=O)[O-])cc2)cc1,17.7
5,CSc1nnc2c3cc(F)ccc3n(C)c2n1,14.5
6,CC(=O)Oc1ccc2c(=O)c(-c3nc4ccccc4s3)coc2c1,21.3
7,O=CN1CCN(C(=O)Cc2ccc([N+](=O)[O-])cc2)CC1,-25.6
8,CCOc1ccccc1OCCCC(=O)N(C)CC(=O)Nc1cc(C)ccc1C,3.63
9,COc1cccc(C2CC(c3cccs3)=NN2C(=O)CSC2=NCCS2)c1OC (stereo not drawn),-14.3
10,O=C(c1ccc(F)cc1)N1CCN(S(=O)(=O)c2ccc(Br)cc2)CC1,-5.63
11,CCCCSc1nn[nH]n1,11.7
12,C[C@H]1C(=O)N(C)CCN1C(=O)c1ccccc1OC1CCN(S(C)(=O)=O)CC1,41.5
13,O=C(COc1ccccc1F)NC1CC1,0.681
14,C=C[C@@H]1c2ccccc2N(S(=O)(=O)c2ccc(C)cc2)[C@H](c2ccc(OC(C)=O)cc2)C1(C#N)C#N,32.9
15,CC1(NC(=S)Nc2ccc(NC(=S)NC3(C)CCS(=O)(=O)C3)cc2)CCS(=O)(=O)C1 (stereo not drawn),19.4
16,Cc1ccc(OC(=O)c2cccc(S(=O)(=O)N(C)C)c2)c(-n2nc3ccccc3n2)c1,-4.3
17,COc1ccc(NC(=O)c2ccc3c(=O)n4c(nc3c2)CCCCC4)cc1,-40
18,Cc1ccc(SCC(=O)O/N=C(\N)c2cccnc2)cc1,-6.55
19,Cc1ccc(C2C=C(c3ccccc3)Nc3ncnn32)cc1 (stereo not drawn),-64.7
20,COc1ccc(NC(=O)CC2C(=O)N(CCc3ccccc3)C(=S)N2Cc2cccnc2)cc1 (stereo not drawn),-23.8
21,CN=C(Nc1ccc(C(=O)OC)s1)c1ccccc1,-4
22,CCn1c(N2CCN(S(=O)(=O)c3ccc(F)cc3)CC2)nc2ccccc21,-36.2
23,CCOC(=O)N1CCN(Cc2cc(=O)oc3ccc4ccccc4c23)CC1,3.35
24,O=C(c1nc2ncccn2n1)N1CCc2ccccc2C1,-3.79
25,Cc1c(Br)ccc(NC(=O)c2ccccc2[N+](=O)[O-])c1C,14.1
26,COCc1nnc(NS(=O)(=O)c2ccc(C)cc2)s1,9.7
27,O=C1CCN(Cc2nnnn2CC2CCCO2)c2ccccc2N1 (stereo not drawn),2.18

row,SMILES,"hERG current change (%, negative = inhibition) at 10uM [%]"
1,Cc1ccc(S(=O)(=O)N2CCN(C(=O)CSc3nc4ccccc4c(=O)[nH]3)CC2)c(C)c1,11.6
2,CCCn1nc2cc(C(=O)NCc3ccc(C)cc3)ccc2c1OC,1.15
3,COc1cc(/C=C(\C#N)C(=O)Nc2ccccn2)ccc1O,13.6
4,O=C1/C(=C/c2ccccc2Cl)SC(=S)N1CCC(=O)N1CCCCC1CCO (stereo not drawn),-8.3
5,COc1cc(C2NC(=O)NC(c3ccccc3)=C2C(C)=O)c(Br)c(Br)c1O (stereo not drawn),1.43
6,Cc1cccc(NC(=O)C2CCCN2C(=O)Oc2ccccc2)c1C (stereo not drawn),-4.43
7,CC(=O)c1cc(C)ccc1OC(=O)CCN1C(=O)C2C3c4ccccc4C(c4ccccc43)C2C1=O (stereo not drawn),-0.13
8,C/C=C(/C)C(=O)Nc1cccc(C2=NOC3(C2)C[C@@H](C(N)=O)N(C(=O)CC)C3)c1 (stereo partly drawn),3.34
9,CC(C)c1cc(C(=O)N/N=C/c2ccoc2)c(O)c(C(C)C)c1,2.22
10,S=c1[nH]c(-c2ccccc2)cn1/N=C/c1cccs1,10.4
11,COC(=O)c1cc(OC)c(OC)cc1NC(=O)CSc1nnnn1Cc1ccccc1,-29.9
12,Cc1ccc(C)c(NC(=O)c2ccc3c(c2)N(Cc2ccc(F)cc2)C(=O)CS3=O)c1 (stereo not drawn),-6.89
13,COc1ccc(S(=O)(=O)/N=C2\C=C(Nc3ccc(O)cc3)C(=O)c3ccccc32)cc1,11.9
14,CCc1ccc2nc(NC(=O)C3CSC4(C)CCC(=O)N34)sc2c1 (stereo not drawn),-18.3
15,O=C(c1ccco1)N1CCCC(c2nc(-c3ccc(S(=O)(=O)NCc4ccccc4)cc3)no2)C1 (stereo not drawn),-19.5
16,CCOc1ccc(C(=O)NCC(=O)OCc2c(F)cccc2Cl)cc1OCC,0.837
17,COc1ccc(-c2cc(C(=O)N3CCN(c4ncccn4)CC3)c3ccccc3n2)c(OC)c1,-25.8
18,CCCCn1c(N)c(N(CCOC)C(=O)COC(=O)CSc2cc(C)c3ccccc3n2)c(=O)[nH]c1=O,-1.11
19,Cc1ccc(C)c(CN2CCNC2=O)c1,8.76
20,COc1cc(/C=C2\N=C(c3ccccc3)OC2=O)ccc1OC(C)=O,17.2
21,CC(C)CN(C(=O)C1CSC2(C)CCC(=O)N12)c1c(N)n(Cc2ccccc2)c(=O)[nH]c1=O (stereo not drawn),8.5
22,CCOc1cc(CNCc2cccnc2)ccc1OCC(=O)NC(C)(C)C.Cl,-7.29
23,Cn1c(CCNC(=O)c2ccccc2F)nnc1SCc1nc2ccccc2c(=O)[nH]1,3.65
24,O=C(CCC(=O)Nc1nnc(C2CCCCC2)s1)NCc1ccc(F)cc1,19.7
25,CC(C)n1c(C(=O)OCC(=O)NCc2ccc3c(c2)OCO3)cc2occc21,-0.55
26,COc1ccc(CCC(=O)N2CCN(c3ccc([N+](=O)[O-])cc3)CC2)cc1OC,-81.5
27,COc1ccc(OC)c(S(=O)(=O)N2CCC(C(=O)NCc3ccccn3)CC2)c1,16.6
